pIC50: −log10 of the molar value. Lines with a small IC50 respond at low doses; a limit (>, <) means that the fit lies beyond the doses tested. The AUC spans the tested range (256-fold, ending at the top dose) of the same fit; it is 1 without any effect and falls as sensitivity rises. For part of these data: Where the top dose is marked as inferred, it is not printed in the source and was worked back from the curve model.

This note sets out measurements from the supplement of paper PMC4967469.

Common to all, as to assay: Viability of human cancer cell lines after 72 h of drug (GDSC screen)
Compound in test [1]: Nc1ccc(C(=O)Nc2cccc(-c3nc(N4CCOCC4)c4oc5ncccc5c4n3)c2)cn1 [YM201636]
The note with it: top dose 5.12 µM; top dose inferred. Here is the method: (§1)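 Human cancer cell lines in 384-well plates, medium with 10% serum, drug for 72 h over a 256-fold dose range (nine 2-fold or five 4-fold steps up to the top dose). Adherent lines were fixed and stained with the nucleic acid dye Syto60, suspension lines read with resazurin; signal relative to control wells, capped at 0 and 100%. One two-parameter sigmoid per drug and line, fitted in a mixed model over all curves with the slope shared within a line.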

Compound in test [2]: NC(=O)C1CCCc2c1[nH]c1ccc(Cl)cc21 [EX-527]
The note with it: top dose 20 µM. The procedure: as §1

Compound in test [3]: N#CC(c1ccnc(NCCc2cccnc2)n1)c1nc2ccccc2s1 [AS601245]
The conditions noted are these: top dose 8 µM; top dose inferred. Here is the method: as §1

What is called pIC50 is −log10 of the IC50, conventionally taken in molar units. As for HuP-T4 (pancreas, adherent), the AUC in test [1] was determined as 0.915; in test [2] it was 0.984; in test [3], 0.787. Besides, the pIC50 in test [1] was under 5.29; in test [2], under 4.70; in test [3], 5.43.
Take IGR-1 (melanoma, adherent): the values for the AUC in test [1], in test [2] and in test [3] were 0.861, 0.966 and 0.814, respectively. The negative-log IC50 (pIC50) in test [1] is 5.45; in test [2], under 4.70; in test [3] it was 5.43.
Consider KMS-12-BM (myeloma, suspension), for which the values for the AUC in test [1], in test [2] and in test [3] were 0.913, 0.981 and 0.932, respectively. Moreover, the negative-log IC50 (pIC50) in test [1] was under 5.29; in test [2] it was under 4.70; in test [3], under 5.10.
On to KYSE-140 (oesophagus, adherent), for which the AUC was 0.869 in test [1], 0.984 in test [2] and 0.592 in test [3]. Besides, the pIC50 was under 5.29 in test [1], under 4.70 in test [2] and 6.03 in test [3].
For the cell line KYSE-410 (oesophagus, adherent), the AUC came to 0.954 in test [1], 0.985 in test [2] and 0.879 in test [3]. For the same cell line, the pIC50 is under 5.29 in test [1], under 4.70 in test [2] and under 5.10 in test [3].
In the case of KYSE-450 (oesophagus, adherent), the AUC came to 0.894 in test [1], 0.988 in test [2] and 0.62 in test [3]. The pIC50 is under 5.29 in test [1], under 4.70 in test [2] and 5.98 in test [3].
As to MKN28 (stomach, adherent), the AUC in test [1] amounted to 0.942; in test [2], 0.985; in test [3], 0.778. Besides, the pIC50 in test [1] is under 5.29; in test [2], under 4.70; in test [3] it was 5.48.
As to “NCI-H1734 (lung adenocarcinoma, adherent)”, the values for the AUC in test [1], in test [2] and in test [3] were 0.948, 0.983 and 0.824, respectively. The negative-log IC50 (pIC50) is under 5.29 in test [1], under 4.70 in test [2] and 5.27 in test [3].
With NCI-H2052 (mesothelioma, adherent), the values for the AUC in test [1], in test [2] and in test [3] were 0.95, 0.983 and 0.813, respectively. The negative logarithm of the IC50 (pIC50) in test [1] was under 5.29; in test [2], under 4.70; in test [3] it was 5.23.
For PA-1 (ovary, adherent), the AUC in test [1] amounted to 0.858; in test [2], 0.9; in test [3], 0.636. Further, the figures for the negative logarithm of the IC50 (pIC50) in test [1], in test [2] and in test [3] were 5.55, 4.80 and 5.97, respectively.
Regarding PFSK-1 (medulloblastoma, adherent), the AUC is 0.953 in test [1], 0.939 in test [2] and 0.939 in test [3]. The figures for the pIC50 in test [1], in test [2] and in test [3] were under 5.29, under 4.70 and under 5.10, respectively.
With RPMI-7951 (melanoma, adherent), the AUC in test [1] came to 0.903; in test [2], 0.985; in test [3], 0.843. Further, the pIC50 was under 5.29 in test [1], under 4.70 in test [2] and 5.27 in test [3].
In the case of SK-MEL-28 (melanoma, adherent), the AUC in test [1] was determined as 0.901; in test [2] it was 0.986; in test [3], 0.941. For the same cell line, the negative-log IC50 (pIC50) in test [1] was under 5.29; in test [2], under 4.70; in test [3], under 5.10.
With SNU-475 (liver, adherent), the AUC in test [1] amounted to 0.767; in test [2] it was 0.991; in test [3], 0.96. The pIC50 was 5.77 in test [1], under 4.70 in test [2] and under 5.10 in test [3].
For the cell line SW1417 (large intestine, adherent), the AUC in test [1] was found to be 0.955; in test [2] it was 0.985; in test [3], 0.951. Moreover, the negative-log IC50 (pIC50) is under 5.29 in test [1], under 4.70 in test [2] and under 5.10 in test [3].
Regarding TMK-1 (stomach, adherent), the AUC stood at 0.955 in test [1], 0.98 in test [2] and 0.714 in test [3]. In addition, the pIC50 in test [1] was under 5.29; in test [2], under 4.70; in test [3], 5.68.
Take VMRC-RCW (kidney, adherent): the AUC turned out to be 0.929 in test [1], 0.982 in test [2] and 0.72 in test [3]. Also, the figures for the pIC50 in test [1], in test [2] and in test [3] were under 5.29, under 4.70 and 5.70, respectively.
